According to article PMC7819943, “Rice protein-binding microarrays: a tool to detect cis-acting elements near promoter regions in rice”:
This is one part of the list.

Target: T1, OsWOX13 (Oryza sativa, UniProt Q5QMM3 1-267)
T1 sequence: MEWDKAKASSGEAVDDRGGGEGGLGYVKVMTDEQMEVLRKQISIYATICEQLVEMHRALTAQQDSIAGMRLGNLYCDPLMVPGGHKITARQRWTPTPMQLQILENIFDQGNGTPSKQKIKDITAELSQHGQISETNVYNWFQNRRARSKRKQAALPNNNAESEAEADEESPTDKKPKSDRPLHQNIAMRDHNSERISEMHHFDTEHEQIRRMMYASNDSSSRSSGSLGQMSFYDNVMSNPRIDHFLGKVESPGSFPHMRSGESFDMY
Test: protein-binding microarray (RPBM); PBS, 2% BSA, 51.3 ng/ul salmon testes DNA, 50 uM zinc acetate, 200 nM TF, 25 C, 1 h; high values mean tight binding
Conditions: protein: recombinant; tags: N-terminal polyhistidine and DsRed monomer fusion (pET32a); label: CyDye5-dUTP incorporated in the synthesized complementary strand; 3' TTTTT single-stranded linker to array surface; dsDNA, one strand shown
Method in brief: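 The binding signal is fluorescence intensity per array feature (arbitrary units). Readings came from an Axon 4000B scanner after a washed, 2% BSA-blocked, double-stranded custom Agilent array had been incubated for 1 h at 25 °C with 200 nM protein and 50 µM zinc acetate. The protein was a Ni–NTA-purified transcription factor fused N-terminally to polyhistidine and DsRed, expressed in E. coli BL21-CodonPlus.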

**Q.** How did the binding signal turn out when “ATATACATATGTCTAAATTTATACTATAACATATCACTTCCGGAGTCACCTAGTGCAG” was run?
**A.** 4850 fluorescence intensity (a.u.)

**Q.** How did the binding signal turn out when “ACCTGGGCCTAATTAGGCGAGGGCCACTACATGATGCTATCGGAGTCACCTAGTGCAG” was run?
**A.** 3780 fluorescence intensity (a.u.)

**Q.** Which binding signal does the source give for “ATTCTCTAATTATTTGATATATGCCTAATAAACCATGAAACGGAGTCACCTAGTGCAG” here?
**A.** 6740 fluorescence intensity (a.u.)

**Q.** How did the binding signal turn out when “CGTGATTTTCCTGGGCCCTGTCTCTTGGGCCCCACAGTGGCGGAGTCACCTAGTGCAG” was run?
**A.** 6540 fluorescence intensity (a.u.)

**Q.** For “TACGTAATTAGGAGCTGCCTAAGCGGTCAAGTGCTACTGCCGGAGTCACCTAGTGCAG”, which binding signal is on record?
**A.** 12800 fluorescence intensity (a.u.)

**Q.** “AGTACAAATGACGGATTAATTAGGCTTAATAAATTCGTCTCGGAGTCACCTAGTGCAG” was tested. Which binding signal did it give?
**A.** 19200 fluorescence intensity (a.u.)

**Q.** Which binding signal does the source give for “TCTAGTCATCCGATTTCCAATCAAAATCGTCTAAACCTTCCGGAGTCACCTAGTGCAG” here?
**A.** 4920 fluorescence intensity (a.u.)

**Q.** How did the binding signal turn out when “ATTATAAGTAAATTAATTAACTCGCAAACATTTCAAGCATCGGAGTCACCTAGTGCAG” was run?
**A.** 14400 fluorescence intensity (a.u.)

**Q.** “TAAGTGATGAGATTTTCTTTGTTAATGAACAAGGCAAAAGCGGAGTCACCTAGTGCAG” was tested. Which binding signal did it give?
**A.** 3720 fluorescence intensity (a.u.)

**Q.** Which binding signal does the source give for “ACCAATATATATATACTAATTAAATTTGTGGAACTTGGATCGGAGTCACCTAGTGCAG” here?
**A.** 4420 fluorescence intensity (a.u.)

**Q.** How did the binding signal turn out when “AAAATCCGATTAGTTAATTAGTTAGTTAAGTGATGTGGTACGGAGTCACCTAGTGCAG” was run?
**A.** 16200 fluorescence intensity (a.u.)

**Q.** Which binding signal does the source give for “CTTCAACTAATTTGGTTGTCGCTCTTGTCGCATAAGGTTGCGGAGTCACCTAGTGCAG” here?
**A.** 6070 fluorescence intensity (a.u.)

**Q.** How did the binding signal turn out when “TACTGTAGACGCAATTGACTAAATAGGGTAAATTGGCTTACGGAGTCACCTAGTGCAG” was run?
**A.** 6540 fluorescence intensity (a.u.)

**Q.** “CCAAATTGACTAATCAGATTCATAAAAGTCACCAGAACTTCGGAGTCACCTAGTGCAG” was tested. Which binding signal did it give?
**A.** 33300 fluorescence intensity (a.u.)

**Q.** For “AAAAGGATTAATTATCATCTAATAACCAGTTCGATTTCCTCGGAGTCACCTAGTGCAG”, which binding signal is on record?
**A.** 12800 fluorescence intensity (a.u.)

**Q.** Which binding signal does the source give for “TCACTTTGGATTGGATAAATTTACCATTGTTGCGATTTGGCGGAGTCACCTAGTGCAG” here?
**A.** 13700 fluorescence intensity (a.u.)

**Q.** Which binding signal does the source give for “CATGTGATTGGAACCATCGATCGCACATGCGTGGAGCAATCGGAGTCACCTAGTGCAG” here?
**A.** 45900 fluorescence intensity (a.u.)

**Q.** With “TAAATATATTGACTATTGAACTTGCTCTTATGCATATCGCCGGAGTCACCTAGTGCAG” as the sequence, how does the binding signal read?
**A.** 7120 fluorescence intensity (a.u.)

**Q.** Which binding signal does the source give for “ATATAATAATAATATAGATAGATGGGGATCTAATTAAGCACGGAGTCACCTAGTGCAG” here?
**A.** 6650 fluorescence intensity (a.u.)

**Q.** How did the binding signal turn out when “CATCCTAATTGAAACAGAACTCTGCTACTGCCTACTGCTTCGGAGTCACCTAGTGCAG” was run?
**A.** 44400 fluorescence intensity (a.u.)

**Q.** With “ATAAAATTGTATTTTACCAGTCTTGGAGATTTTAATCTTGCGGAGTCACCTAGTGCAG” as the sequence, how does the binding signal read?
**A.** 3730 fluorescence intensity (a.u.)

**Q.** With “ACAATAGATTAATCGTATAAGACACTAGATTTAACGTGAACGGAGTCACCTAGTGCAG” as the sequence, how does the binding signal read?
**A.** 6400 fluorescence intensity (a.u.)

**Q.** For “TTTCTAAGATTTGATTTAAACATTGTCCTAAACGACTTACCGGAGTCACCTAGTGCAG”, which binding signal is on record?
**A.** 12300 fluorescence intensity (a.u.)

**Q.** For “CGATAATTAGAAGTTCTCCCAAATAGGCCCATTGTTTCACCGGAGTCACCTAGTGCAG”, which binding signal is on record?
**A.** 27700 fluorescence intensity (a.u.)

**Q.** “TCTGTTAATAGATATGTAGACAGTCCCTATATGAAAACAGCGGAGTCACCTAGTGCAG” was tested. Which binding signal did it give?
**A.** 11900 fluorescence intensity (a.u.)

**Q.** “ACTTAACAATACTAATCGTCTTTGTCTATACTAATCGAGCCGGAGTCACCTAGTGCAG” was tested. Which binding signal did it give?
**A.** 4170 fluorescence intensity (a.u.)

**Q.** For “TAGCCACCGTGATTGATTGATCTATAGATCGATTGGTGCCCGGAGTCACCTAGTGCAG”, which binding signal is on record?
**A.** 64000 fluorescence intensity (a.u.)

**Q.** With “AAATATTGATTTAAGTAGGTGAGAGGTCCCAGTTGATGGACGGAGTCACCTAGTGCAG” as the sequence, how does the binding signal read?
**A.** 15400 fluorescence intensity (a.u.)

**Q.** For “CCATTTAGTTGACATACAATAAATGAGTGGGCATCAACCCCGGAGTCACCTAGTGCAG”, which binding signal is on record?
**A.** 3740 fluorescence intensity (a.u.)

**Q.** How did the binding signal turn out when “ACAAACATAACATAGAATTTATTTAACTAGCGCTATACATCGGAGTCACCTAGTGCAG” was run?
**A.** 3990 fluorescence intensity (a.u.)

**Q.** “CACAAAGTTAATCTAATTAAAATTAAAATTTAATACTACACGGAGTCACCTAGTGCAG” was tested. Which binding signal did it give?
**A.** 3860 fluorescence intensity (a.u.)

**Q.** With “CATCTTTCTAATTAGGACCAAATTTAATGGTCGTCAACACCGGAGTCACCTAGTGCAG” as the sequence, how does the binding signal read?
**A.** 21400 fluorescence intensity (a.u.)

**Q.** How did the binding signal turn out when “GTGGACCAATCAATTAATAATCTACGTACAACAAGGACCCCGGAGTCACCTAGTGCAG” was run?
**A.** 40600 fluorescence intensity (a.u.)

**Q.** For “TAAATTTACTTTTAATAATCATTGCACCAAACTTTGTGAACGGAGTCACCTAGTGCAG”, which binding signal is on record?
**A.** 4810 fluorescence intensity (a.u.)

**Q.** “AGATTAATTTAAGATTGGTCGAAACTAAAACGTCAATAAACGGAGTCACCTAGTGCAG” was tested. Which binding signal did it give?
**A.** 15300 fluorescence intensity (a.u.)

**Q.** How did the binding signal turn out when “CCTGATTATCCCGTGTCTTCTCCGCTTCTGGGTTGGTTGCCGGAGTCACCTAGTGCAG” was run?
**A.** 31500 fluorescence intensity (a.u.)

**Q.** How did the binding signal turn out when “GAGTTTAATGACTAACTTGTTAATGTTAACCAGGCACGCACGGAGTCACCTAGTGCAG” was run?
**A.** 4800 fluorescence intensity (a.u.)

**Q.** Which binding signal does the source give for “GGGACCATATATCAATTATGCTGACAAGACAATCCATCTGCGGAGTCACCTAGTGCAG” here?
**A.** 8560 fluorescence intensity (a.u.)

**Q.** Which binding signal does the source give for “AGGTAATCATATTGTTGTTATTCGTGGATGGGGTGGGCTCCGGAGTCACCTAGTGCAG” here?
**A.** 11100 fluorescence intensity (a.u.)

**Q.** Which binding signal does the source give for “TTTATTAATGATCTAATCTCTAACTAAACTCCCTATCAATCGGAGTCACCTAGTGCAG” here?
**A.** 6590 fluorescence intensity (a.u.)

**Q.** Which binding signal does the source give for “ATTGATTGCTTTACGAGTTATATATGTGCACCTGGAAGAACGGAGTCACCTAGTGCAG” here?
**A.** 40500 fluorescence intensity (a.u.)

**Q.** How did the binding signal turn out when “TACCAGATTGGGGTGTGACAGTACTGCATTTACAATATCACGGAGTCACCTAGTGCAG” was run?
**A.** 4820 fluorescence intensity (a.u.)

**Q.** With “GCTAATTTGACTCGGTTTTCATCTGACGTGGCATTGACGTCGGAGTCACCTAGTGCAG” as the sequence, how does the binding signal read?
**A.** 35600 fluorescence intensity (a.u.)

**Q.** Which binding signal does the source give for “ATTAGTCAAATTTTAAAATTTTAACCTTAAATTTAGAGCTCGGAGTCACCTAGTGCAG” here?
**A.** 8200 fluorescence intensity (a.u.)

**Q.** For “TTTGTATAAATTTCGTGCAAATTTACAAATCAAGTCCGAACGGAGTCACCTAGTGCAG”, which binding signal is on record?
**A.** 7560 fluorescence intensity (a.u.)

**Q.** “TTTTCCTTGTGATTAATTCTTGGTAGCTTCTGCTCCTGCCCGGAGTCACCTAGTGCAG” was tested. Which binding signal did it give?
**A.** 4190 fluorescence intensity (a.u.)

**Q.** For “TAGCACGGATTTCAATAATTATGCACGTGTGAAGGAGAGACGGAGTCACCTAGTGCAG”, which binding signal is on record?
**A.** 3930 fluorescence intensity (a.u.)

**Q.** How did the binding signal turn out when “TTGTTGGGTGGGGACGTGGGGTGGGGTTCATGGAGTGGTTCGGAGTCACCTAGTGCAG” was run?
**A.** 7370 fluorescence intensity (a.u.)

**Q.** How did the binding signal turn out when “CGCCATGATTTTCGTTCATCCATAGCTTCTGCAGCGCCGGCGGAGTCACCTAGTGCAG” was run?
**A.** 4730 fluorescence intensity (a.u.)

**Q.** For “GCTGTTAAATTGAGGGTCCTCCGGTGAACTTATTCCTAATCGGAGTCACCTAGTGCAG”, which binding signal is on record?
**A.** 7550 fluorescence intensity (a.u.)

**Q.** “GTATTAATTTGGCCACCATAAACCCGGCGTTGAGAGCGACCGGAGTCACCTAGTGCAG” was tested. Which binding signal did it give?
**A.** 6070 fluorescence intensity (a.u.)

**Q.** For “ATTTACAAATAATATTATAAATTGAACCAAAATAATTACCCGGAGTCACCTAGTGCAG”, which binding signal is on record?
**A.** 5270 fluorescence intensity (a.u.)

**Q.** Which binding signal does the source give for “CCGTGATTTCCTGCCGGGATCAGACCGGGGCTTCTCTTCCCGGAGTCACCTAGTGCAG” here?
**A.** 8650 fluorescence intensity (a.u.)

**Q.** For “AATTGATAACTAGGAATTTCAAAATGCAGGAATTTTGTGACGGAGTCACCTAGTGCAG”, which binding signal is on record?
**A.** 3260 fluorescence intensity (a.u.)
